Results: PubChem BioAssay AID1030 (National Center for Advancing Translational Sciences (NCATS), 2008)
Hit rate of the full screen: of about 220,000 compounds, about 16,000 (7.3%) were called active. The shares of active, inactive and inconclusive entries below differ from those in the screen. Calls come from the whole dose curve; as a rule, active = well fitted inhibition curve with a large enough effect (not every such curve was filed as active); inconclusive = small, poorly fitted or top-dose-only effect, or another doubt; inactive = no such curve, though single readings can be large or run the other way. No potency is given beside an inconclusive call; the fits are too rough.

molecular target: Aldehyde dehydrogenase 1A1 (Homo sapiens) (UniProt P00352); assay: qHTS Assay for Inhibitors of Aldehyde Dehydrogenase 1 (ALDH1A1); details: Purified ALDH1A1, NADH fluorescence, propionaldehyde substrate; series mostly up to 75.3 µM
UniProt P00352, sequence (P00352 whole entry, looked up): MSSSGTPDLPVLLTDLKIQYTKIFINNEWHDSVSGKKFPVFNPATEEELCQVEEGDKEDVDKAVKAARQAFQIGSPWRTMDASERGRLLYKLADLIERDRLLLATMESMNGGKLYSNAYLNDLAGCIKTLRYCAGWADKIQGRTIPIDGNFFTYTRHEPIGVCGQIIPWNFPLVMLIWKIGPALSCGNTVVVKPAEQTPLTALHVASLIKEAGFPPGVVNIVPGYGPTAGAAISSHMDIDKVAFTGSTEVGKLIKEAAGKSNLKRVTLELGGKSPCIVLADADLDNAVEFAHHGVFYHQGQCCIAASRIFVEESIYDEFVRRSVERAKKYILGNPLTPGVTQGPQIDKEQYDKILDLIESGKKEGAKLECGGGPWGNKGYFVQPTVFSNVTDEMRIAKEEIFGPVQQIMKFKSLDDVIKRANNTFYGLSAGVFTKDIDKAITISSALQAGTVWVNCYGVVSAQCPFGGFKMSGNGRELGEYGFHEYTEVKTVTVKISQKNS
Potency is the fitted concentration of half-maximal effect; tags give direction and shape of the fitted curve.

Structure (SMILES)	Potency
O=[N+]([O-])c1ccc(Cl)c(CN2CCC(O)CC2)c1	inconclusive [inhibitor, single point]
COC(=O)c1ccccc1NC(=O)c1ccc(-c2cccc(Cl)c2)o1	inconclusive [inhibitor, single point]
CCCC(=O)Nc1nc2c(OC)ccc(OC)c2s1	active: 15.8 µM
CCN1C(=O)CSC1=NC12CC3CC(CC(C3)C1)C2	inconclusive [inhibitor, single point]
CCN1C/C(=C/c2ccc(N3CCOCC3)cc2)C(=O)/C(=C/c2ccc(N3CCOCC3)cc2)C1	inconclusive [inhibitor, single point]
CC(C)Oc1ccc(S(=O)(=O)N(C(C)C)C(C)C)cn1	inconclusive [inhibitor, single point]
C=CCSc1nnc(NC(=O)Cn2cnc3c2c(=O)n(C)c(=O)n3C)s1	inconclusive [inhibitor, single point]
CCC(=O)NCCCNc1nc2c(C)cccc2cc1C#N	inconclusive [inhibitor, partial curve]
O=C1OCCN1C(=O)[C@H]1[C@H](c2ccccc2)C(c2ccccc2)=NN1c1ccc(Br)cc1	inconclusive [inhibitor, partial curve]
CCOC(=O)C1=C(C)N(CCCC(=O)O)C(=O)NC1c1ccccc1OS(=O)(=O)c1ccc(C)cc1 (configuration not stated)	inactive
C=CCNC(=S)NNc1nc2c(c(=O)[nH]1)C1(CCCCC1)Cc1ccccc1-2	active: 12.6 µM
Cc1ccc(C)c(N2CCN(C(=O)CCNC(=O)Cn3ccc4ccccc4c3=O)CC2)c1	inactive
COc1ccccc1NC(=O)N(Cc1ccco1)Cc1cc2c(C)ccc(C)c2[nH]c1=O	active: 17.8 µM
CCOC(=O)c1sc(=NC(=O)/C=C/c2cccs2)n(C)c1C	inconclusive [inhibitor, single point]
Cc1ccc(C#CC[N+]2(CC#Cc3ccc(C)cc3)CCCCC2)cc1	inactive
COc1ccc(CC(=O)N2CCCc3ccccc32)cc1	inconclusive [inhibitor, single point]
COc1cc2c(cc1OC)C(c1ccccc1)N(C(=O)CCl)CC2 (configuration not stated)	inconclusive [inhibitor, single point]
CN1C(=O)CSc2ccc(NC(=O)N3CCN(c4ccccc4)CC3)cc21	inconclusive [inhibitor, single point]
O=c1c2cc(NC(=S)NC3CC3)ccc2nc2n1CCCCC2	inactive
CCOC(=O)c1ccccc1N/C=C/C(=O)c1cccs1	inconclusive [inhibitor, partial curve]
COc1cc(CN2CCNC(=O)C2CC(=O)NCCc2ncccc2C)cc(OC)c1 (configuration not stated)	active: 23.8 µM
COc1cc(CC(=O)N/N=C/c2ccccc2)c([N+](=O)[O-])cc1OC	inactive
COc1ccc(-c2nc3c(c4c2C[C@H](c2ccccc2)OC4)CN(C(=O)Cc2cccs2)CC3)c(C)c1	active: 3.98 µM
O=C(Nc1nnc(-c2ccco2)s1)C1CC1	inconclusive [inhibitor, single point]

Structure (SMILES)	Potency
Cc1nc(N)sc1-c1csc(Nc2ccc(Cl)cn2)n1	inactive
COc1ccc(-c2csc(NCc3ccco3)n2)cc1C	inconclusive [inhibitor, single point]
FC(F)(F)c1ccccc1/C=N/Nc1ccccn1	inactive
CCOc1ccc(-c2ccc(SCC(=O)N3CCOCC3)nn2)cc1	inactive
CC(=O)Nc1cccc(NC(=O)CSc2nnc(Cc3cccn3C)n2-c2ccc(C)cc2)c1	inactive
O=C(CCCN1C(=O)c2ccccc2C1=O)Nc1ccc(S(=O)(=O)N2CCCCC2)cc1	inconclusive [inhibitor, partial curve]
COc1ccccc1N1CCN(C(CNC(=O)C2CCCCC2)c2cccnc2)CC1 (configuration not stated)	inactive
Cc1cc(C)c(NC(=O)CS)c(Cl)c1	inconclusive [inhibitor, single point]
O=C(Nc1ccc(N2CCN(C(=O)c3ccco3)CC2)cc1)c1ccco1	inactive
Cn1cc(C(=O)NCc2cccs2)c(=O)c2cc(S(=O)(=O)N3CCCC3)ccc21	active: 4.47 µM
CCOc1ccc(S(=O)(=O)NCC(=O)N(C)Cc2cccnc2)cc1	inconclusive [inhibitor, partial curve]
CCc1cc2c(=O)c(Oc3ccccc3)c(C)oc2cc1O	inconclusive [inhibitor, partial curve]
COc1cc(NC(=O)c2cccs2)c(C(=O)OCC(=O)NC(=O)NCc2ccccc2)cc1OC	inconclusive [inhibitor, partial curve]
O=C(Cc1ccccc1[N+](=O)[O-])NCc1ccco1	inconclusive [inhibitor, single point]
Cc1ccc(-n2nnnc2Sc2ccc(S(=O)(=O)NCCN(C)C)cc2[N+](=O)[O-])cc1	inconclusive [inhibitor, single point]
CCOC(=O)C1C(=O)C=C(c2ccc(C)cc2)CC1c1ccc([N+](=O)[O-])cc1 (configuration not stated)	inconclusive [inhibitor, partial curve]
CCCCCn1c(=NC(=O)c2ccco2)c(C(=O)OCC)cc2c(=O)n3ccccc3nc21	inconclusive [inhibitor, partial curve]
CCCC(=O)NCCc1ccc(F)cc1	inactive
CCN(CC)C(=O)C1CCCN(c2ccc([N+](=O)[O-])cc2[N+](=O)[O-])C1 (configuration not stated)	inactive
Cc1nnc2n(Cc3ccccc3)c(=O)c3c4c(sc3n12)COC(C)(C)C4	active: 12.6 µM
CCOC(=O)C1=C(C)Nc2ccccc2N=C1NC(=O)C(CC)c1ccccc1 (configuration not stated)	inactive
CCN(C(=O)Cc1c(C(=O)O)[nH]c2ccccc12)c1ccc(OC)cc1	inconclusive [inhibitor, single point]
NC(=O)c1cn(-c2ccccc2)nc1-c1cc2ccccc2oc1=O	inconclusive [inhibitor, single point]
